Laboratory results taken from the RNAGym collection of RNA variant scans (doi:10.1093/nar/gkz1192).
Read counts are not given, so values of variants with three or more changes are uncertain.

B1: CPEB3 Ribozyme (parent)
chain: UAACAGGGGGCCACAGCAGAAGCGUUCACGUCGCAGCCCCUGUCAGAUUCUGGUGAAUCUGCGAAUUCUGCUGUAUAUCUC

Variants of: B1
Experiment: self-cleavage, relative activity (ratio to wild type); higher = more cleavage; in vitro, sequencing
Summary of the method: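 Barcoded CPEB3 ribozyme mutants, produced by rounds of error-prone PCR, self-cleaved while being transcribed with T7 RNA polymerase for 5 hours at 37°C and during a subsequent 15 min DNase I step before EDTA was added. Sequencing of template-switched cDNA on Illumina gave cleaved and total reads, and DNA sequencing assigned barcodes to variants. Each variant's relative activity is its cleaved/total read fraction divided by the unmutated ribozyme's fraction, averaged across three batches. A variant needed a minimum of 5 reads.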

| Variant | self-cleavage |
| --- | --- |
| UAACAGGGGGCCACUGCAGAAGCGUUCACGUCGCAGCCCCUGUCAGAUCCCUGUGAAUCUGCGAAUGCUGCUGUACAUCCC [A15U U49C U51C G52U U67G U76C U80C] | 0.1 |
| UAACAGGGGGCCACUGCAGAAGCGUUCACGCCGCAGCCCCUGUCAGAUUCUGGUGUAUCUGCGAAUUCUGCUGUAUAUCUC [A15U U31C A56U] | 0.12 |
| UAACAGGGGGCCACUGCAGAAGCGUUCACGUCGCAGCCCCUGCCAGAUUCUGGUGAAUCUGCGAACUCUGCUGUAUACCUC [A15U U43C U66C U78C] | 0.05 |
| UAACAGGGGGCCACUGCAGAAGCGUUCACGUCGCAGCCCCUGUCAGACUCUGGUGAAUCUGCGAGUUCUGCUGUAUAUCUC [A15U U48C A65G] | 0.17 |
| UAACAGGGGGCCACUGCAGAAGCGUUCACGUCGCAGCCCCCGCCAGAUUCUGGUGAAUCUGCGAAUUCUGCUGUGUAACUC [A15U U41C U43C A75G U78A] | 0.25 |
| UAACAGGGGGCCACUGCAGAAGCGUUCACGUCGCAGCCCCUGUCAGAUUCCGGUGGAUCUGCGAAUUCUGAUGUAUAUCUC [A15U U51C A56G C71A] | 0.15 |
| UAACAGGGGGCCACUGCAGAAGCGUUCACGCCGCAGCCCCUGGCAGAUUCUGGUGGGUCUGCGAAUUCUGCUGUAUAUCUC [A15U U31C U43G A56G A57G] | 0.13 |
| UAACAGGGGGCCACUGCAGAAGCGUUCACGUCGCAGCCCCUGUCAGAAUCUGGUGAAUCUGCGAAUUCUGUUGUAUAUCAC [A15U U48A C71U U80A] | 0.05 |
| UAACAGGGGGCCACUGCAGAAGCGUUCACGUCGCAGCCCCUGUCAGAUUCAGGUGAAUCAGCGAAUUCUGCUGUAUAUCUC [A15U U51A U60A] | 0.39 |
| UAACAGGGGGCCACUGCAGAAGCGUUCACGUCGCAGCCCCCGUCAGAUUCUGGUGAAUCUGCGAAUUCCGCUGUAUGUCUC [A15U U41C U69C A77G] | 0.19 |
| UAACAGGGGGCCACUGCAGAAGCGUUCACGUCGCAGCCCCCGUCAGAUUCUGGUGAAUCUGCGAAUUCUGCUGUAUAUCAC [A15U U41C U80A] | 0.89 |
| UAACAGGGGGCCACUGCAGAAGCGUUCACGUCGCAGCCCCUGUCAGACUCUGGAGAAUCUGCGAAUUAUGCUGUAUAUCUC [A15U U48C U54A C68A] | 0.18 |
| UAACAGGGGGCCACUGCAGAAGCGUUCACGUCGCAGCCCCUGCCAGAUUCUGGUGAAUCUGCUAAUUCUGCUGUAUAUCUC [A15U U43C G63U] | 0.65 |
| UAACAGGGGGCCACUGCAGAAGCGUUCACGUCGCAGCCCCUGACAGAUUCUGGUGAAUCAGCGAAUUCUACUGUAUAUCUC [A15U U43A U60A G70A] | 0.23 |
| UAACAGGGGGCCACUGCAGAAGCGUUCACGCCGCAGUCCCUGUCAGAUUCUGGUGAAUCUGCGAGUUCUGCUGCAUAUCUC [A15U U31C C37U A65G U74C] | 0.03 |
| UAACAGGGGGCCACUGCAGAAGCGUUCACGUCGCAGCCCCAGUCAGAUUCUGGUGAAUCUGCGAAUCUUGCCGUAUAUCCC [A15U U41A U67C C68U U72C U80C] | 0.06 |
| UAACAGGGGGCCACUGCAGAAGCGUUCACGCCGCAGCCCCUGUCAGAUUCUGGUGAAUCUGCGAAUCCUGCUGUGUAUCUC [A15U U31C U67C A75G] | 0.11 |

| Variant | self-cleavage |
| --- | --- |
| UAACAGGGGGCCACUGCAGAAGCGUUCACGCCGCAGCCCCUGUCAGAUUCUGGUGAAUCUGCGAAUCCUGCUGUAUAUCUC [A15U U31C U67C] | 0.14 |
| UAACAGGGGGCCACUGCAGAAGCGUUCACGUCGCAGCCCCUGCCAGAUUUUGGUGAAUCUGCGAAUUCUGCUGUACAUCUC [A15U U43C C50U U76C] | 0.14 |
| UAACAGGGGGCCACUGCAGAAGCGUUCACGCCGCAGCCCCUAUCAGAUUCUGGUGAAUCUGCGAAUUCUGCUGUAUAUCUC [A15U U31C G42A] | 0.09 |
| UAACAGGGGGCCACUGCAGAAGCGUUCACGUCGCAGCCCCUGUCAGACUCUGGAGAAUCUGCGAAUUAUGCUGUAUAUCCC [A15U U48C U54A C68A U80C] | 0.13 |
| UAACAGGGGGCCACUGCAGAAGCGUUCACGUCGCAGCCCCAGUCAGGUUCUGGUGAAUCUGCGAAUUCUGCUGUAUAUCUC [A15U U41A A47G] | 0.26 |
| UAACAGGGGGCCACUGCAGAAGCGUUCACGUCGCAGCCCCUGUCAGACUCUGGUGGAUCUGCGAAUACUGCCGUAUACCUC [A15U U48C A56G U67A U72C U78C] | 0.03 |
| UAACAGGGGGCCACUGCAGAAGCGUUCACGCCGCAGCCCCUGUCAGAUUCCGGUGAAUCUGCGAAUUCUGCUGUAUAUCUC [A15U U31C U51C] | 0.63 |
| UAACAGGGGGCCACUGCAGAAGCGUUCACGUCGCAGCCCCCGUCAGAUCCUGGUGAAUCUGCGAGUUCUGCUGUAUAUCUC [A15U U41C U49C A65G] | 0.11 |
| UAACAGGGGGCCACUGCAGAAGCGUUCACGCCGCAGCCCCUGUCAGGUUCUGGUGAAUCUGCGAAUCCUGCUGUAUAUCUC [A15U U31C A47G U67C] | 0.14 |
| UAACAGGGGGCCACUGCAGAAGCGUUCACGUCGCAGCCCCUGACAGAUUCUGGAGAAUCUGCGAAUUCUGCUGUAUUUCUC [A15U U43A U54A A77U] | 0.96 |
| UAACAGGGGGCCACUGCAGAAGCGUUCACGCCGCAGCCCCUGUCAGAUUCUGGUGAAUCUGCGAGUUCUGCUGUAUAUCUC [A15U U31C A65G] | 0.16 |
| UAACAGGGGGCCACUGCAGAAGCGUUCACGUCGCAGCCCCCGUCAGAUUCUGGUGAGUCUGCGAAUUCUGCGGCAUAUCUC [A15U U41C A57G U72G U74C] | 0.51 |
| UAACAGGGGGCCACUGCAGAAGCGUUCACGCCGCAGCCCCUGUCAGAUUCUGGAGAAUCUGCGGGUUCUGCCGUAUAUCUC [A15U U31C U54A A64G A65G U72C] | 0.09 |
| UAACAGGGGGCCACUGCAGAAGCGUUCACGUCGCAGCCCCCGUCAGAUUCUGGAGAAUCUGCGAAUUCUGCUGUAUAUCUC [A15U U41C U54A] | 1.01 |
| UAACAGGGGGCCACUGCAGAAGCGUUCACGUCGCAGCCCCCGUCAGAUUCUGGUGGAUCUGCGAAUUCUGCUGUAUAUCUC [A15U U41C A56G] | 0.79 |
| UAACAGGGGGCCACUGCAGAAGCGUUCACGUCGCAGCCCCCGUCGCAUUCUGGUGAAUCUGCGGAUUCUGCUGUAUAUCUC [A15U U41C A45G G46C A64G] | 0.22 |
| UAACAGGGGGCCACUGCAGAAGCGUUCACGUCGCAGCCCCUGACAGAUCCUGGUGAAUCUGCGAAUUCAGCUGUAUAUCUC [A15U U43A U49C U69A] | 0.18 |
